Measurements: PubChem BioAssay (NCI)
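Exposure lasted 48 hours, with cells grown in 96-well plates and compounds tested at five concentrations. Abbreviation: GI50, concentration required for 50% inhibition of growth. TGI marks complete inhibition of growth.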

Test system: NCI-H322M lung
Assay: NCI anticancer screen, dose series, 48 h

**Q.** How did the GI50 turn out when `CC[C@H](CO)Nc1ccc2ncc(C#Cc3cncc(C(=O)Nc4ccc(CN5CCN(C)CC5)c(C(F)(F)F)c4)c3)n2n1` was run?
**A.** 405 nM

**Q.** What about the TGI of the same compound?
**A.** 1740 nM

**Q.** How did the GI50 turn out when `NC(N)=Nc1ccc(Oc2cccc(Nc3cccc(C(F)(F)F)c3)c2)cn1` was run?
**A.** 1630 nM

**Q.** What about the TGI of the same compound?
**A.** 3010 nM

**Q.** Which GI50 does the source give for `CN1CCN(c2ccc(Nc3nc(NCCCNS(=O)(=O)c4ccc(F)cc4)c4sccc4n3)cc2)CC1` here?
**A.** 13200 nM

**Q.** And the TGI?
**A.** 32400 nM
